Data published in patent US20200087297A1.
“And” between values parts separate entries of the source, which are not always exact repeats. Equal entries are not always repeated.

Molecular target: CD22 (B-cell receptor CD22-B isoform) (human), P20273
Assay: cell-based or functional assay

CD22 (B-cell receptor CD22-B isoform) (human), P20273, sequence (P20273 20-847): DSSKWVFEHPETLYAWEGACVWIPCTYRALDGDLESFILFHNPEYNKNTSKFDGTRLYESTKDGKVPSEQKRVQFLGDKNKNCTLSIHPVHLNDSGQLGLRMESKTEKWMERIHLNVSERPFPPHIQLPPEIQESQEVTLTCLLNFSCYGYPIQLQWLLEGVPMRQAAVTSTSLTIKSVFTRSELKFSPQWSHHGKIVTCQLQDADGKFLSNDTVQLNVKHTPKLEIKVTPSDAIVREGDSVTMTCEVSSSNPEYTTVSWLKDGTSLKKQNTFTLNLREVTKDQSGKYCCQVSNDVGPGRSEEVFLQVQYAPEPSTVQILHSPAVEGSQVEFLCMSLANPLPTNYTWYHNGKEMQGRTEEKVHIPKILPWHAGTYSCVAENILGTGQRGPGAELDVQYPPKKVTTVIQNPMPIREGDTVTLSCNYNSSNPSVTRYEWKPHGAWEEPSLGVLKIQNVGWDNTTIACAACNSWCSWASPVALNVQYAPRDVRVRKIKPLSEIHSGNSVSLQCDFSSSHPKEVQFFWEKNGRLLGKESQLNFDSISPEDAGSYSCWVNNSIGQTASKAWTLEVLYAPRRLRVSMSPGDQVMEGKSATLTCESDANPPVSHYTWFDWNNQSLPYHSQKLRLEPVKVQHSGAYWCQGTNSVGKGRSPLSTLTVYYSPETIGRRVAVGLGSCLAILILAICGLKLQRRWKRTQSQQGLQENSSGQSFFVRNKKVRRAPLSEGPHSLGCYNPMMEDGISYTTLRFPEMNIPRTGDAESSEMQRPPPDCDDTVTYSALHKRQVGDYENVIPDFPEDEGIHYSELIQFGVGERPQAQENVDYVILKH

B1: Anti-CD22 10F4v3 LC K149C MC-Sq-Cit-PAB-Tubulysin M (antibody, human IgG1, kappa)
heavy: EVQLVESGGGLVQPGGSLRLSCAASGYEFSRSWMNWVRQAPGKGLEWVGRIYPGDGDTNYSGKFKGRFTISADTSKNTAYLQMNSLRAEDTAVYYCARDGSSWDWYFDVWGQGTLVTVSS[letters of human IgG1 constant region omitted]
light: DIQMTQSPSSLSASVGDRVTITCRSSQSIVHSVGNTFLEWYQQKPGKAPKLLIYKVSNRFSGVPSRFSGSGSGTDFTLTISSLQPEDFATYYCFQGSQFPYTFGQGTKVEIKRTVAAPSVFIFPPSDEQLKSGTASVVCLLNNFYPREAKVQWCVDNALQSGNSQESVTEQDSKDSTYSLSSTLTLSKADYEKHKVYACEVTHQGLSSPVTKSFNRGEC
modifications: here or on the partner: MC-Sq-Cit-PAB-Tubulysin M linker-drug on the engineered Cys of LC K149C (Kabat numbering); DAR 1.8-1.9
BJAB IC50 (cell killing): 17.4 nM and 2610 ng/mL | WSU-DLCL2 IC50 (cell killing): 0.147 nM and 22.1 ng/mL

B2: Anti-CD22 10F4v3 LC K149C MC-Sq-Cit-PAB Dolastatin 10 (antibody, human IgG1, kappa)
heavy: B1 heavy
light: B1 light
modifications: here or on the partner: MC-Sq-Cit-PAB-Dolastatin 10 linker-drug on the engineered Cys of LC K149C (Kabat numbering); DAR 1.8-1.9
WSU-DLCL2 IC50 (cell killing): 0.385 nM and 57.8 ng/mL
